# Experimental data: PMC4336329 (PLoS ONE, 2015)
# The whole screen tested about 310,000 compounds, of which about 14,000 (4.5%) showed an effect of 50% or more. Effects have a minus sign here. The list shows a part of the results.
# Molecular target: human ether-à-go-go-related gene (hERG) potassium channel (human, UniProt Q12809)
# Assay: primary screen, population patch clamp on CHO cells stably expressing hERG
# 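Also: peak tail current of the secondary pulse compared with the same well before compound.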
# human ether-à-go-go-related gene (hERG) potassium channel, sequence (Q12809 whole entry, looked up): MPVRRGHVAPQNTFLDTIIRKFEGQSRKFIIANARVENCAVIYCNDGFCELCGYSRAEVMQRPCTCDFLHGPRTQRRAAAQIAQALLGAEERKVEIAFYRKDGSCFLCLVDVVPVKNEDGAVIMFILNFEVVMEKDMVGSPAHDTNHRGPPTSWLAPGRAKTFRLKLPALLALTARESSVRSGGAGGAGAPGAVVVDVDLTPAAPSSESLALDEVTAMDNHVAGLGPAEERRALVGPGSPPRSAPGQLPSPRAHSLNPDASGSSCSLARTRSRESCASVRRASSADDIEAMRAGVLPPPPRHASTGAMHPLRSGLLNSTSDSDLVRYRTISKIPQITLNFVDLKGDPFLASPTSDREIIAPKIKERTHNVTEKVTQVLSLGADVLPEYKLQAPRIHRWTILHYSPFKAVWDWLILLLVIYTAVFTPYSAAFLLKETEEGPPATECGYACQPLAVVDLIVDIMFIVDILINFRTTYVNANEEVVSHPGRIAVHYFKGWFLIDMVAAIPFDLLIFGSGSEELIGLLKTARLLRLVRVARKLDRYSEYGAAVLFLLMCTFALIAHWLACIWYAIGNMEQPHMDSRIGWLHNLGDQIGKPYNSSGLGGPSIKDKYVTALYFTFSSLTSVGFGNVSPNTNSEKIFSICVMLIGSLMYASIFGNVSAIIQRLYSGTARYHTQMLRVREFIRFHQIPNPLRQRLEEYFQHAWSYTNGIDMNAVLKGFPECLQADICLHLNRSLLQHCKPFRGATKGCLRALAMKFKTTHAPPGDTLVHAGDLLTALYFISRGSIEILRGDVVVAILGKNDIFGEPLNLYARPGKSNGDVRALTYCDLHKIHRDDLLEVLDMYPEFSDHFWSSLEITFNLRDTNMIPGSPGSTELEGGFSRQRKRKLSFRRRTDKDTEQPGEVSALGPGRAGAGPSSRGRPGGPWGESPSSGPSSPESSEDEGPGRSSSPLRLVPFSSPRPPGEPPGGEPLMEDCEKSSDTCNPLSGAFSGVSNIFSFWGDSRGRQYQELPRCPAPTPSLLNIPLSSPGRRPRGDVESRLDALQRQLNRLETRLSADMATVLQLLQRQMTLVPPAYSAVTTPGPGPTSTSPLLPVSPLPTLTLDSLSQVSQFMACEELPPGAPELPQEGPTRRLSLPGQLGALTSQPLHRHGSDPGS
row,Structure (SMILES),"hERG current change (%, negative = inhibition) at 10uM [%]"
1,Cc1cc(C)c(S(=O)(=O)N2CCN(c3ccc([N+](=O)[O-])c(-n4nc(C)cc4C)c3)CC2)c(C)c1,-7.91
2,CC(CC(=O)Nc1ncc([N+](=O)[O-])s1)c1ccccc1 (stereo not shown),0.741
3,CC(=O)c1ccc(N2CCN(C(=O)c3ccc(NC(=O)C4CCCO4)cc3)CC2)cc1 (stereo not shown),-6.34
4,COc1ccc(C)cc1N(C(=O)c1cccc(F)c1)c1nc2ccccc2s1,-8
5,CCOC(=O)C1=C(C)NC(=O)CC1c1ccccc1 (stereo not shown),-0.777
6,COc1ccc(-c2cc(C(=O)NN)n(-c3ccccc3)n2)cc1,-22.3
7,CC(C)CNC(=S)N(CCN(C)C)Cc1cc2cc3c(cc2[nH]c1=O)OCCO3,10.6
8,Cc1nccn1CCc1n[nH]c(=S)n1Cc1ccccc1,-23.9
9,OCCNc1nc2ccccc2n1-c1ccccc1,5.75
10,CCOc1ccc(C2=[N+]([O-])C(C)(C)N(O)C2(C)C)cc1,2.54
11,CCn1c(SCC(=O)NC2CCCCC2C)nnc1-c1ccc(OC)cc1 (stereo not shown),-12.8
12,O=C1CCCC2=C1C(c1ccc(Cl)cc1)C1C(=O)c3ccccc3C1=N2 (stereo not shown),-7.96
13,COc1cc2c(cc1OC)C(c1cccs1)N(C(=O)c1cccnc1)CC2 (stereo not shown),-54.9
14,COc1ccc(OC2CCN(S(=O)(=O)c3ccc(OC)c(OC)c3)CC2)cc1,-30.9
15,COc1ccccc1NC(=O)NCCN1CCN(c2cccc(Cl)c2)CC1,-9.6
16,Br.Cc1cccc(N2C(=O)SC(SC(=Nc3ccccc3)Nc3ccccc3)C2=O)c1 (stereo not shown),15.3
17,CCOc1ccccc1Nc1nc(N)nc(CN2CCCCC2C)n1 (stereo not shown),-50
18,COc1ccc(C2C(C(=O)OCC(=O)N3CCCCC3)CCC(=O)N2c2ccc(OC)cc2)cc1 (stereo not shown),-13.3
19,COc1ccccc1Oc1ccc(NC(=O)c2ccc(Cl)cc2)cc1,18.1
20,Cc1nn(C)cc1CNC(=O)c1cccc(Cl)c1,-2.62
21,COc1cc2c(cc1OC)/C(=C/C(=O)c1ccc(F)cc1)NCC2,-19.5
22,O=C(CNC(=O)c1ccc(-c2ccccc2)cc1)OCc1c(F)cccc1Cl,17.3

row,Structure (SMILES),"hERG current change (%, negative = inhibition) at 10uM [%]"
1,Cc1ccsc1C1NC(=O)c2c(sc3c2CCN(C)C3)N1 (stereo not shown),-6.6
2,O=C(Nc1ccccc1C(=O)N1CCOCC1)C1CC(=O)N(c2ccc(F)cc2)C1 (stereo not shown),-0.294
3,Cc1cc([N+](=O)[O-])nn1CCCC(=O)NC(C)c1ccccc1 (stereo not shown),-7.05
4,Cc1coc2cc3oc(=O)c(CCC(=O)NCCCn4ccnc4)c(C)c3cc12,-41.4
5,Cc1ccc(C2C(C#N)=C(N)SC(N)=C2C#N)o1,-4.47
6,CC(C)(C)N(Cc1cc2ccccc2[nH]c1=O)C(=O)C1CCCCC1,-11.9
7,CC1=C(C(N)=O)C(c2sccc2C)n2nnnc2N1 (stereo not shown),11.1
8,O=C(CCl)N(c1ccccc1)C1CCS(=O)(=O)C1 (stereo not shown),1.75
9,CC1CCC2(CC1)NC(=O)N(CC(=O)Nc1cccc(C#N)c1)C2=O (stereo not shown),9.8
10,CN(CC(=O)NC1CCCCC1)S(=O)(=O)c1ccc(Br)s1,20.1
11,Cc1cccc(OCCCCN2CCNCC2)c1,14.2
12,C/C(=N\NC(=O)c1nnn(-c2nonc2N)c1CSc1ccc(C)cc1)c1ccco1,-9.04
13,O=C(c1ccccc1)N1CCN2C(=O)c3ccccc3C12c1ccc(Cl)cc1 (stereo not shown),-25
14,COc1cc(NC(=O)NCC2CCN(Cc3ccccc3F)CC2)cc(OC)c1,-14.9
15,Cc1csc(NC(=O)CSc2nc(C)nc3c2c(=O)n(C)c(=O)n3C)n1,-31.3
16,CCN(C(=O)Cc1c(C(=O)O)n(CC)c2ccccc12)c1ccccc1C,23.1
17,NC(=O)c1sc2nc3c(c(-c4ccco4)c2c1N)CCCC3,-9.55
18,CC12CS(=O)(=O)CC1SC(=S)N2c1ccccn1 (stereo not shown),5.32
19,O=C(Nc1cccnc1Cl)c1cc(-c2ccc(F)cc2)on1,27.3
20,COC(=O)c1c(NC(=O)CCNCc2ccco2)sc2c1CCC2.O=C(O)C(=O)O,-7.76
21,CC(C)Cc1nnc(NC(=O)C2CSC3(C)CCC(=O)N23)s1 (stereo not shown),-12.4
22,CC(C)c1c(C(=O)N/N=C/c2ccccc2C(=O)O)nnn1-c1nonc1N,4.51

row,Structure (SMILES),"hERG current change (%, negative = inhibition) at 10uM [%]"
1,O=C(NCc1cccs1)C1CCC(=O)N(Cc2cccc(C(F)(F)F)c2)C1 (stereo not shown),-27.5
2,CC(=O)Oc1ccccc1C(=O)NC(C)CCc1ccccc1 (stereo not shown),-33.4
3,CCOCCCN(C(=O)c1snc(C(N)=O)c1N)C(C(=O)NC1CCCC1)c1ccc(O)c(OC)c1 (stereo not shown),13.5
4,CCN1CCN(C(=O)c2[nH]c3ccc(OC)cc3c2C)CC1,-2.17
5,CCN(CC)CCCNC(=O)CCc1c(C)n(CC)c2cc(-c3ccccc3OC)nn2c1=O,28.4
6,CC1=[N+]([O-])C(C)(C)C(c2ccc(Br)cc2)=[N+]1[O-],1.58
7,C=CCNC(=O)c1c(CSc2ccccc2)noc1C(=O)NCc1ccccc1,8.01
8,CC1=NNC(=O)C1CCC(=O)N/N=C\c1ccccc1[N+](=O)[O-] (stereo not shown),0.38
9,NC(=O)N/N=C/c1ccc(-n2nncc2-c2ccc(Cl)cc2)cc1,-17.5
10,COc1cc(CC(=O)OCC(=O)Nc2cc([N+](=O)[O-])ccc2F)cc(OC)c1OC,-38.9
11,Nc1ncnc2c1nc(N1CCCCC1)n2[C@@H]1O[C@H](CO)[C@@H](O)[C@H]1O,19.3
12,COc1ccc(S(=O)(=O)N2CCC(C(=O)N[C@@H](C)C(=O)NC3CC3)CC2)cc1,20.5
13,CO[C@H]1C=C2CCN(C)[C@H]2C2c3cc4c(cc3C(=O)O[C@@H]21)OCO4.O=[N+]([O-])O (stereo partly shown),14.5
14,CCOc1ccc(NCc2cccn2-c2nnc(N3CCC(C(=O)NCCCN4CCCCC4CC)CC3)s2)cc1 (stereo not shown),-68
15,CCCN(CCC)c1nc2ccccc2n2c(C)nnc12,-46.4
16,CCOc1ccccc1NS(=O)(=O)c1cccc2nsnc12,-15.6
17,Cc1ccc(S(=O)(=O)N2CCN(C(=O)c3c(-c4ccccc4)noc3C)CC2)c(C)c1,-8.61
18,Cc1cc(C)c(C#N)c(Nc2ccccc2C)n1,12.4
19,O=Cc1ccc(C(=O)OCC(=O)N2CCCC2)cc1,17.3
20,CCN(C1CCCCC1)S(=O)(=O)c1ccc(S(=O)(=O)N2CCN(CCC#N)CC2)cc1,-25.9
21,COCCCN(Cc1cccs1)S(=O)(=O)c1csc(C(N)=O)c1,-0.232
22,O=C(NCCCN1CCCC1=O)c1ccc(Cl)c(S(=O)(=O)N2CCCCC2)c1,-24.1

row,Structure (SMILES),"hERG current change (%, negative = inhibition) at 10uM [%]"
1,CCc1cc2c(nc1CC)CCN(CC/C(C)=N/O[C@@H](C)c1cc(-c3c(C)cc(C)cc3C)no1)C2,-7.78
2,CC(C)CC(=O)NC(=S)Nc1ccc(NC(=O)c2ccco2)cc1,24.5
3,O=C(CSc1nn(-c2ccccc2)c(=S)s1)Nn1cnnc1,14.8
4,CCCCN(C(=O)CCn1c(=O)oc2ccccc21)c1ccccc1,-17.7
5,COCCn1ccc2c(OCC(=O)NCCc3ccccc3)cccc2c1=O,-19.4
6,Cc1ccc(NC(=O)CCc2ccc(C)o2)cc1,-0.805
7,O=C(COc1ccccc1Cl)Nc1cccc(S(=O)(=O)N2CCCC2)c1,2.28
8,COc1ccc(NC(=S)Nc2cccc(Cl)c2Cl)cc1OC,6.31
9,O=C(Nc1ncc2c(n1)-c1ccccc1CC2)c1cccs1,-25.7
10,CC(=O)c1sc(NC(=O)c2ccc(C)cc2)nc1C,7.72
11,Cc1ccccc1OCCNCC(C)O.O=C(O)C(=O)O (stereo not shown),20.1
12,CC1CCCCC12NC(=O)N(CC(=O)Nc1ccc3[nH]c(=O)[nH]c3c1)C2=O (stereo not shown),7.01
13,N#Cc1cc2c(cc1NC(=O)CCn1cnnn1)OCO2,21.4
14,CCN(Cc1nc2ccccc2c(=O)[nH]1)Cc1nc2cc(OC)c(OC)cc2c(=O)[nH]1,14.9
15,O=C(Nc1cc([N+](=O)[O-])ccc1N1CCOCC1)c1cccs1,1.15
16,Nc1nonc1C(=O)N/N=C/c1ccc(Br)o1,4.21
17,Cc1cc(Nc2cccc(Cl)c2)n2ncnc2n1,-5.83
18,O=c1oc2cc(OCc3ccc(C(F)(F)F)cc3)ccc2cc1-c1ccccn1,10.4
19,CCOc1ccc(/C=N/NC(=O)CC(=O)Nc2ccc(Cl)c(Cl)c2)cc1,5.01
20,CCOc1ccccc1NC(=O)c1ccc2c(c1)C(=O)N(CC)C2=O,5.07
21,C=CCOc1ccc(/C(O)=C2/C(=O)C(=O)N(CCCN3CCOCC3)C2c2ccc(OC)cc2)cc1 (stereo not shown),4.63
22,CC(C)CC(=O)CC1(O)C(=O)Nc2ccccc21 (stereo not shown),23.3
